For this assay, the target named is T1, human holo-transferrin (human).
T1 construct: also called holo-Tf; Tf
Put plainly: blocking ELISA: biotinylated huTfR binding to immobilized HFE. (In an ELISA, binding on a coated surface is turned into a signal by an enzyme label.)

The record followed here is US20180057604A1 (Genentech, published 2018).

B1: human TfR extracellular domain with N-terminal His tag (receptor, not shown: small tags and cut ends)
chain: not shown
notes: Biotinylated in some assays; also called huTfR; HuTfR
For the molecule B1, the binding result is given as “binds”.
